PMC8641147
Results are given in words; binding and its absence hold for the method and conditions named. Binding seen in cells or lysates may run through a third protein. Some results given as binding are weak or reduced against the parent protein; the word gives no strength.

By UniProt entry, the sequences of proteins in these tests, tags left out. Where a name states a change or a piece, a line headed by the entry shows the natural chain unless it says otherwise.
UniProt O43791: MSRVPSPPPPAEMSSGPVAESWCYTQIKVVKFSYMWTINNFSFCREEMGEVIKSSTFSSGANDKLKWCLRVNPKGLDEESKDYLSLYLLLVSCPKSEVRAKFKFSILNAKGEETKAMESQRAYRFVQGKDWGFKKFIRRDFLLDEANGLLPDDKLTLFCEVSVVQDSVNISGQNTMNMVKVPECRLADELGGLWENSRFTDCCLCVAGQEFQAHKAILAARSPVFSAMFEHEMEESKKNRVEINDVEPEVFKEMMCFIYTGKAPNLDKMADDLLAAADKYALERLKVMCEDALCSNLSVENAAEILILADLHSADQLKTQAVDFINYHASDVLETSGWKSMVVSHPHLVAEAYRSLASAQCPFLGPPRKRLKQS

Legend:
[1] = molecular target: Flag-HnRNPK (Heterogeneous nuclear ribonucleoprotein K) (UniProt P61978); experiment: co-IP; 293 cells transfected with both tagged partners; 30 h post-transfection 10 uM MG132 for 10 h; IP lysis buffer (25 mM Tris-HCl pH 7.4, 150 mM NaCl, 1 mM EDTA, 1% NP-40, 5% glycerol), antibody-conjugated beads 4 C 4 h; immunoblot of WCL and IP (Fig. 5D, 5G, 6B)
[2] = molecular target: HnRNPK as in Fig. 6D (construct not named) (UniProt P61978); experiment: co-IP; 293 cells transfected with HA-SPOP-WT or prostate cancer-associated SPOP mutants; 10 uM MG132 for 10 h before harvesting; immunoblot of WCL and IP; the HnRNPK construct is not named (Fig. 6D)
HA-HnRNPK = HA-HnRNPK (UniProt P61978); experiment: co-IP; 293 cells transfected with both tagged partners; 30 h post-transfection 10 uM MG132 for 10 h; IP lysis buffer (25 mM Tris-HCl pH 7.4, 150 mM NaCl, 1 mM EDTA, 1% NP-40, 5% glycerol), antibody-conjugated beads 4 C 4 h; immunoblot of WCL and IP (Fig. 5D, 5G, 6B)

| Substance | binding [1] | binding [2] | binding (HA-HnRNPK) |
| --- | --- | --- | --- |
| Myc-tagged Cullin 4A (from UniProt Q13619 1-759) | binds weakly | – | – |
| SPOP W131G (from UniProt O43791 1-374) | – | no binding | – |
| SPOP F102C (from UniProt O43791 1-374) | – | no binding | – |
| Flag-tagged SPOP WT (speckle-type POZ protein) (from UniProt O43791 1-374) | – | – | binds |
| HA-tagged SPOP-WT (from UniProt O43791 1-374) | binds | binds | – |
